Measured values as given in US7524505B2, “Compositions and methods for dual therapies of hair graying and balding in follicular delivery systems” (Schweitzer Biotech Company Ltd., priority 2005, dated 2009).

Columns and labels:
[1] = system: AGA animal model; assay: AGA (androchronogenetic alopecia) animal model in vivo, topical application; design: species or system B6CBAF1/j hybrid mouse; details: topical liposome application, testosterone-induced balding mice, versus balding control; 14 days; FIG. 10
Text: The spontaneous mutation of C57BL/6J mouse in our lab has an appearance of hair balding with homologous jb/jb genes (FIG. 10). We chose the mutant mice as the female parent. The androchronogenetic alopecia (AGA) animal model was then established by the hybrid of C57BL/6J female×CBA/J male. This hybrid is called the B6CBAF1/j hybrid mouse. […] The female of the hybrid is more sensitive to testosterone than male mice, and therefore is appropriate for use as the human AGA balding mimic^18).

[2] = system: graying animal model; assay: Graying animal model in vivo, topical application (hair color, melanin level); design: species or system mice (hybrid of C3H and BALB/C); details: HSCF packaged in liposome
Text: The graying animal model used to simulate human hair graying and to test the effects of the compositions on hair pigmentation in vivo, is established by the F1 generation. It is derived from the hybrid of the C3H and BALB/C mice, which grow white hair after the treatment with the whiting gel, containing 1-20% hydroquinone and 1-20% glycolic acid. In fact, tyrosinase has been proven to dominantly control the synthesis pathway of melanin. When human ages, the tyrosinase genes in melonocytes gradually become depleted, so white hair grows as a result. We establish a kind of mice with the heterologous tyrosinase gene (Tyr+/Tyr−), the activity of which is easy to inhibit by the treatment of whiting agent like hydroquinone. The BALB/C mice is in white color because of homologous depletion of tyrosinase gene (Tyr−/Tyr−) and the C3H strain with (Tyr+/Tyr+) appear in brown color. Heterologous tyrosinase gene (Tyr+/Tyr−) of the F1 generation is to simulate the genotype of human aging in hair follicles, which is much easier to induce tyrosinase depletion or inactivation to appear in white color. After the treatment with the whiting gel for 7 days, the F1 generation starts to grow white hair. […] The standard curve of melanin is measured at first by the commercial product of melanin.

[3] = system: hair follicle organ; assay: Hair follicle organ cultured in vitro, length of re-grown hair; format: cell-based, mice (F1 generation of C3H mated with BALB/C); details: hair follicles cultured 12 days in the formula of amino acids and vitamins; length measured at Day 12; FIG. 7
Text: At the age of 8 weeks, the F1 generation of C3H mated with BALB/C supplies the hair follicle material. By plucking the whiskers by depilating forceps, an anagen phase of the hair follicle can be induced. After three days of whisker plucking, the mice were killed and the hair follicle samples were harvested. Each selected hair follicle was then carefully isolated from the subcutaneous fat and the connective tissue surrounding the capsule was removed under a stereo-dissection microscope with fine forceps. We picked up the intact hair follicles with average size for the next step of culture, and which is in the early anagen stage, which is determined by the hair follicle conformation. Before culture, the hair fibre was first cut out at the surrounding line of the hair follicle to make the length measurement of hair growth much more easily in the future (FIG. 7). […]
Ten hair follicles were cultured in each treatment. […] The length of the hair growth beginning from the cutting site was measured at Day 12. […]
Hair follicle was observed by the Inverted microscope (Lieca DM, IL) and captured with the image by CCD connecting with a computer. The hair length was analyzed with the computer software: Northern Eclipse image system. The data of hair length were analyzed with the Duncan's new multiple range test by one way analysis of variance (ANOVA) using the SigmaStat program (2002).

B1: HSCF: the two growth factors SCF and IGF-I, either the combination (HSCF-I) or the recombinant protein (HSCF-II) (protein)
chain: MKKTQTWILTCIYLQLLLSNPLVKTEGICRNRVTNNVKDVTKLVANLPKDYMITLKYVPGMDVLPSHCWISEMVVQLSDSLTDLLDKFSNISEGLSNYSIIDKLVNIVDDLVECVKENSSKDLKKSFKSPEPRLFTPEEFFRIFNRSINAFKDFVVASETSDCVVSSTLSGGGGKLGGGGSGG[about 80 residues not shown]
modifications: Human HSCF-II
- hair re-growth of hairless follicles [1]: enough to stimulate the hair growth
- hair color of the re-grown dorsal hair ([2]; topical once a day for two weeks, after whiting gel, versus graying control, FIG. 8): much darker than the graying mice of the control
- content of melanin in the hair shaft ([2]; topical, versus control, P<0.05, OD 475 nm, FIG. 9): higher
- effect on hair re-growth (hair length) [3]: better than that of SCF and IGF-I each
